Results taken from PubChem BioAssay AID1240 (Sanford-Burnham Center for Chemical Genomics, 2008).
The campaign covered roughly 50,000 compounds. About 800 (1.6%) showed an effect of 50% or more. This is one part of the list.

Target: Bcl-2-like protein 10 (Homo sapiens) (UniProt Q9HD36)
Assay: Phenotype converters, Bcl-B/TR3 peptide binding displacement, primary biochemical FP (AID 1240);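 also: 0% = Bcl-B with tracer peptide and DMSO and 100% = tracer peptide lacking Bcl-B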
Settings: GST-Bcl-B / FITC-TR3 peptide fluorescence polarization; stronger effect = higher value; compound at 3.75 mg/L

Sequence of UniProt Q9HD36 (Q9HD36 whole entry, looked up): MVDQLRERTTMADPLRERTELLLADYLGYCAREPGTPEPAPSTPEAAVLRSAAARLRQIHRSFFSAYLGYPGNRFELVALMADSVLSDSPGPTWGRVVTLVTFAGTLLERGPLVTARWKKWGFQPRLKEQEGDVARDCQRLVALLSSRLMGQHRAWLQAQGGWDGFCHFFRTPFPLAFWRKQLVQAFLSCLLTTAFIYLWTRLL

Row | SMILES | displacement [%]
1 | Cc1ccc(S(=O)(=O)N2CCN(Cc3cccnc3)CC2)cc1 | 2
2 | Cc1ccc(C2Nc3ccccc3C(=O)N2c2ccccc2)cc1 (stereo not given) | 10.9
3 | COC(=O)c1ccc(Nc2nnc(-c3ccc(C(=O)NCCO)cc3)c3ccccc23)cc1 | 4.9
4 | COc1cccc(OCCOc2ccc(/C=C3/SC(=S)N(c4ccccc4)C3=O)cc2OC)c1 | 6.1
5 | O=C(Nc1ccc2nn(-c3ccccc3)nc2c1)c1cccc(I)c1 | 10.4
6 | O=[N+]([O-])c1ccccc1N/C(=N/S(=O)(=O)c1ccccc1)c1ccccc1 | 14.7
7 | O=C(/C=C/c1ccc(Cl)cc1)N1CCN(CCN2C(=O)c3cccc4cccc(c34)C2=O)CC1 | -8
8 | O=C(NNC(=O)c1cccc(O)c1)c1ccc(Br)cc1 | 3.1
9 | CC(=O)Nc1ccccc1NC(=O)/C=C/c1ccccc1 | 6.5
10 | CC(C)(C)N1C(=O)c2ccc(C(=O)Nc3cccc(C(=O)O)c3)cc2C1=O | 13.5
11 | CC(=O)CSc1nnnn1-c1ccccc1 | 2.1
12 | COc1cc(/C=N\NC(=O)CNc2ccc(C)cc2)cc(Br)c1O | 11.8
13 | Cc1[nH]c2ccccc2c1C=Nc1cccc([N+](=O)[O-])c1C | 9.8
14 | Cc1ccc(C(=O)Nc2cccc(NC(=O)COc3ccc(Br)cc3)c2)cc1 | 0.9
15 | Cc1cccc(CN2CCN(S(C)(=O)=O)CC2)c1 | 9.4
16 | COc1cc2cc(C(N)=O)c(N)nc2cc1OC | 9
17 | CN(C)S(=O)(=O)c1cc(S(=O)(=O)N(C)C)c2cccc3c2c1NC3=O | 0.1
18 | O=C(O)c1ccccc1SC1CC(=O)N(c2ccc([N+](=O)[O-])cc2)C1=O (stereo not given) | 2.5
19 | CC(C)=CCCC1=CCC2(C)C(=O)NNC(=O)C2C1 (stereo not given) | 7.6
20 | Cc1ccc(C(=O)Nc2nc3ccccc3n2Cc2ccccc2Cl)cc1 | 9.4
21 | O=C1/C(=C\c2cccc(C(F)(F)F)c2)SC(=S)N1c1cccc(Cl)c1 | 14.5
22 | O=C(c1sc2ccccc2c1Cl)N1CCN(c2cccc(C(F)(F)F)c2)CC1 | -9.9

Row | SMILES | displacement [%]
23 | Cc1ccc2c(C)nc(Nc3nc(-c4ccccc4)cc(=O)[nH]3)nc2c1 | -3.6
24 | O=C(CSc1ccc(Cl)cc1Cl)Nc1cc(Cl)ccc1Cl | 10
25 | COc1ccc(OC)c(NC(=O)C(=O)NCc2ccncc2)c1 | 13.6
26 | O=C(/C=C/c1ccc(-c2ccccc2[N+](=O)[O-])o1)Nc1ccc(O)c(-c2nc3ccccc3o2)c1 | -4.1
27 | CCC/C(C(=O)OCC)=C(/C)NCCN/C(C)=C(\CCC)C(=O)OCC | 11
28 | Cc1c(NC(=O)c2cccc3ccccc23)c(=O)n(-c2ccccc2)n1C | 1.8
29 | Cc1ccc(C(=O)Nc2cc(-c3cccc(C)c3)[nH]n2)cc1 | 6.2
30 | CCCOc1ccc(C(=O)Nc2cccc(OC)c2)cc1 | 16.1
31 | CC(=C(C#N)C#N)c1ccc2c(c1)OCO2 | 14.6
32 | O=Cc1ccc(-c2nc3c4ccccc4ccn3c2C=O)o1 | 3.7
33 | C#CCSc1nncn1C(=O)/C=C/c1ccccc1 | -9.6
34 | CC(=O)Oc1ccc2nc(-c3ccc(C)c([N+](=O)[O-])c3)oc(=O)c2c1 | 7.1
35 | CCSC1(SCC)N=C(N)C2(C#N)C(c3ccccc3)NC(C)=CC12C#N (stereo not given) | -3.3
36 | O=C(NC1CC1)c1ccc(C2SCC(=O)N2Cc2ccccc2)cc1 (stereo not given) | 5.1
37 | C[n+]1cccc(C(=O)NCCOC(=O)c2ccc(F)cc2)c1 | 2.6
38 | CCCc1ccc(OCC(=O)Nc2cccc(F)c2)cc1 | -4.4
39 | COc1cc(OC)cc(C(=O)N2CCN(C(=O)COc3ccc(Cl)cc3)CC2)c1 | -23.1
40 | O=C(N/N=C/c1c2ccccc2cc2ccccc12)c1cccc([N+](=O)[O-])c1 | 11
41 | COc1cccc(NC(=O)CN(c2ccc(OC)cc2OC)S(=O)(=O)c2ccc(C)cc2)c1 | 6.2
42 | NC(=O)c1ccc(NC(=O)CCC(=O)O)cc1 | 4.8
43 | CC(C)Cn1c(CCN2C(=O)c3ccccc3C2=O)nc2ccccc2c1=O | 7.6
44 | Cc1cccc(OCC(=O)Nc2ccccc2CO)c1 | -4.7

Row | SMILES | displacement [%]
45 | COc1cccc(Nc2nc(C)c([N+](=O)[O-])c(Nc3cccc(OC)c3)n2)c1 | 6
46 | CC1=NN(C(=O)c2cccc(C)c2O)C(O)(c2ccc(Cl)cc2)C1 (stereo not given) | -2
47 | COc1ccc([N+](=O)[O-])cc1NC(=O)/C=C/c1ccccc1 | 7.1
48 | O=C(O)c1ccc(-c2cc([N+](=O)[O-])ccc2Cl)o1 | 16.9
49 | Cc1nnc(NC(=O)c2cc(-c3ccc(Cl)cc3)nc3ccccc23)s1 | 26.1
50 | COc1ccc(CCNC(=O)/C=C/c2ccc(C)cc2)cc1 | 7.5
51 | Cn1c2c(c(=O)n(C)c1=O)C(c1ccc(Br)cc1)C1=C(N2)c2ccccc2C1=O (stereo not given) | -10.4
52 | COc1ccc(C(=O)Nc2ccc(S(N)(=O)=O)cc2)cc1I | -4.5
53 | Cc1ccc(-c2ccc(/C=C3\SC(=S)NC3=O)o2)c([N+](=O)[O-])c1 | 11.2
54 | O=C(NCCCNC(=O)c1cccc(F)c1)c1cccc(F)c1 | 3.2
55 | COC(=O)CN1C(c2ccccc2OC)Nc2ccc(Br)cc2C1c1ccccc1 (stereo not given) | 6.9
56 | COc1ccc(CCNC(=O)COc2ccc(Cl)cc2Br)cc1OC | -3.1
57 | CN(C)C(=O)COc1ccc2ccc(=O)oc2c1 | 11
58 | O=C(Nc1cc(-c2nc3ccccc3s2)ccc1Cl)c1cc(I)ccc1Cl | 13.7
59 | Cc1cc(C)cc(NC(=O)Cc2ccc(Br)cc2)c1 | 17.2
60 | Cc1cc(NC(=O)CSc2nc3ccccc3[nH]2)no1 | 14.3
61 | O=C(/C=C/c1ccccc1)NCC1(c2ccccc2)CCOCC1 | -11
62 | COc1cccc2cc(C(=O)OCC(=O)c3ccc([N+](=O)[O-])cc3)c(=O)oc12 | 9.7
63 | COc1cc(/C=C2\C(=O)N(c3cccc(C(=O)O)c3)N=C2C)ccc1O | -114
64 | CCc1nc(SCc2ccc(OC)cc2)n[nH]1 | -12.6
65 | CCN(CC)c1ccc(NC(=O)c2ccc(-c3cccc(Cl)c3)o2)cc1 | 11.8
66 | O=C(NN=C1CCCC1)c1cccnc1 | 6.8

Row | SMILES | displacement [%]
67 | O=C1NN(c2ccccc2)C(=O)C2C3c4ccccc4C(c4ccccc43)C12 (stereo not given) | -1.4
68 | Cc1cccnc1NC(=O)c1ccccc1NC(=O)c1ccccc1 | -10.3
69 | Cc1cc(/C=C2\C(=O)NC(=O)N(c3ccc4c(c3)OCO4)C2=O)c(C)n1-c1cccc([N+](=O)[O-])c1 | 52.7
70 | COc1cc(Br)c(/C=C(\C#N)C(=O)NCc2ccco2)cc1OC | 28.8
71 | CCc1cccc(C)c1NC(=O)COc1ccc(OC)cc1 | -1.9
72 | Cc1cc(C)cc(NC(=O)/C=C/C(=O)O)c1 | -2.2
73 | O=C(/C=C/c1ccc(Cl)cc1)Nc1ccc(N2CCOCC2)cc1 | 3.8
74 | COc1ccc2oc(-c3ccc(Cl)cc3)cc(=O)c2c1 | 6.8
75 | CC(CC(=O)c1cccs1)CC(=O)c1cccs1 | -5.4
76 | O=C1C(Cl)=C(N2CCN(c3ccccc3)CC2)C(=O)N1c1ccccc1 | 13.7
77 | CCCCOC(=O)c1ccc(NC(=O)c2cccc([N+](=O)[O-])c2)cc1 | -2.4
78 | CC1=C(C(=O)OC2CCCCC2)C(c2cc3c(cc2[N+](=O)[O-])OCO3)C2=C(CC(C)(C)CC2=O)N1 (stereo not given) | -0.2
79 | O=C(Oc1ccc(Cl)cc1)c1cccs1 | -8.9
80 | COc1ccc(C2SCc3cc(C)c(C)cc3CS2)cc1OC | -5.8
81 | CN(C)c1nc(Nc2nc3ccccc3[nH]2)nc(N(C)C)n1 | 0.2
82 | Cc1ccc(CSc2nnnn2-c2ccccc2)cc1 | -5.2
83 | CCNC(=S)N(CCc1ccccc1)C1CC(=O)N(c2ccc(F)cc2)C1=O (stereo not given) | -4.9
84 | COc1cccc(/C=N/NC(=O)/C(=C/c2ccc(N(C)C)cc2)NC(=O)c2ccccc2)c1O | 0.9
85 | CCC(=O)c1ccc(N2CCCC2)c(F)c1 | -13.5
86 | O=C(Nc1ccc(NC(=O)c2cc3ccccc3o2)cc1Br)c1ccccc1 | 10.9
87 | O=C(NC(=S)Nc1ncn[nH]1)c1ccccc1 | -21.2
88 | Cc1nnc(NC(=O)c2cc(Cl)cc(Cl)c2)s1 | -0.3

Row | SMILES | displacement [%]
89 | CC(NC(=O)c1ccccc1)c1ccc(Br)cc1 (stereo not given) | 5.7
90 | COc1ccc(/C(N)=N/OC(=O)Cc2ccc(Cl)cc2)cc1 | -6.7
91 | O=C1/C(=C/c2ccc(O)c([N+](=O)[O-])c2)SC(=S)N1c1ccc(Br)cc1 | -20.5
92 | O=C(Nc1ccccc1C(=O)N1CCCCC1)c1ccccc1Cl | 10.3
93 | C/C(=C\c1ccccc1)c1nc(-c2ccccc2O)n(-c2ccccc2)n1 | -15.4
94 | CC(=O)Nc1cc(Oc2cccc(C)c2)cc([N+](=O)[O-])c1 | -6.1
95 | COc1ccccc1C1/C(=C(/O)c2ccccc2)C(=O)C(=O)N1CC1CCCO1 (stereo not given) | -8.4
96 | C=CCn1c(SCC(=O)NCCCO)nc2sc3c(c2c1=O)CCCC3 | 2.5
97 | COc1cccc(/C=C2\SC(=S)N(Cc3ccccc3)C2=O)c1OC | 8.6
98 | O=C(Nc1ccccc1C(F)(F)F)c1ccc(-c2ccc(Cl)cc2Cl)o1 | -12.2
99 | COc1ccc(-c2ccc(/C=C3/C(=O)NN(c4ccc(C)c(Cl)c4)C3=O)o2)c([N+](=O)[O-])c1 | 13.1
100 | COc1ccccc1C1Nc2ccccc2NC2=C1C(=O)CCC2 (stereo not given) | 0.9
101 | Cc1cc(C)cc(NC(=O)c2sc3ccccc3c2Cl)c1 | 4.2
102 | CCCOc1ccc(/C=N/NS(=O)(=O)c2ccc3ccccc3c2)cc1OC | 1
103 | COc1cc(/C=c2\sc3nc4ccccc4n3c2=O)cc(Cl)c1OCc1ccccc1F | -5.8
104 | O=C(Nc1cccc(C(F)(F)F)c1)c1ccccc1[N+](=O)[O-] | 11.9
105 | CCn1c(SCCc2ccccc2)nc2ccccc2c1=O | -4.3
106 | Cc1cc(Cl)cc(C)c1OCCN1CCCC1 | 4.5
107 | CSc1ccc(S(=O)(=O)N(CC(=O)Nc2ccccc2Br)c2ccc(C)cc2)cc1 | -11.5
108 | CCOc1ccc(N(CC(=O)Nc2ccc(OC)cc2)S(=O)(=O)c2ccc(SC)cc2)cc1 | -0.6
109 | CCOc1ccccc1/C=C(/NC(=O)c1ccccc1)C(=O)N(CC)CC | -5
110 | CC(=O)Nc1ccc(S(=O)(=O)N(c2ccccc2F)S(=O)(=O)c2ccc(NC(C)=O)cc2)cc1 | 10
